From US20220119501A1 (INVISISHIELD TECHNOLOGIES, published 2022) come the findings set out here.

In the assay the target is S1 subunit polypeptide of SARS-CoV-2 spike protein (isolate 2019-nCoV, WIV4) (SARS-CoV-2 (isolate 2019-nCoV, WIV4)). In words: phage ELISA on SARS-CoV-2 spike S1 (FIG. 1). On the technique in general: In an ELISA, binding on a coated surface is turned into a signal by an enzyme label.

B1: anti-S1 (SARS-CoV-2) scFv clone #04 (scFv)
scFv: QSVLTQPPSASGTPGQRVTISCSGGSSNIGSNPVNWYQQLPGTAPKLLIYSNNQRPSGVPDRFSGSKSGTSASLAISGLQSEDEADYYCAAWDDSLSGSVLFGGGTKLTVLGSRGGGGSGGGGSGGGGSLEMA[about 100 residues not spelt out]GYSDRWGQGTLVTVSSTSGQAGQ
notes: also called phage clone #04
On to B1, for which the binding result is recorded as “binds”.

B2: anti-S1 (SARS-CoV-2) scFv clone #85 (scFv)
scFv: QAVLTQPPSASGTPGQMVTISCSGSNSNIGSNPVNWYQQLPGTAPKLLIYGNDERPSGVPDRFSGSKSGTSASLAISGLQSEDEADYYCAAWDDSLDGHVIFGGGTKLTVLGSRGGGGSGGGGSGGGGSLEMA[about 100 residues not spelt out]GYSDYWGQGTLVTVSSTSGQAGQ
notes: also called phage clone #85
In the case of B2, the binding result was “binds”.
